Laboratory results from PMC4336329 (PLoS ONE, 2015).
In all, about 310,000 compounds went through this assay and about 2,200 (0.71%) showed an effect of 50% or more. Effects have a minus sign here. This is one part of the list.

Target: human ether-à-go-go-related gene (hERG) potassium channel (human, UniProt Q12809)
Assay: primary screen, population patch clamp on CHO cells stably expressing hERG

human ether-à-go-go-related gene (hERG) potassium channel, sequence (Q12809 whole entry, looked up): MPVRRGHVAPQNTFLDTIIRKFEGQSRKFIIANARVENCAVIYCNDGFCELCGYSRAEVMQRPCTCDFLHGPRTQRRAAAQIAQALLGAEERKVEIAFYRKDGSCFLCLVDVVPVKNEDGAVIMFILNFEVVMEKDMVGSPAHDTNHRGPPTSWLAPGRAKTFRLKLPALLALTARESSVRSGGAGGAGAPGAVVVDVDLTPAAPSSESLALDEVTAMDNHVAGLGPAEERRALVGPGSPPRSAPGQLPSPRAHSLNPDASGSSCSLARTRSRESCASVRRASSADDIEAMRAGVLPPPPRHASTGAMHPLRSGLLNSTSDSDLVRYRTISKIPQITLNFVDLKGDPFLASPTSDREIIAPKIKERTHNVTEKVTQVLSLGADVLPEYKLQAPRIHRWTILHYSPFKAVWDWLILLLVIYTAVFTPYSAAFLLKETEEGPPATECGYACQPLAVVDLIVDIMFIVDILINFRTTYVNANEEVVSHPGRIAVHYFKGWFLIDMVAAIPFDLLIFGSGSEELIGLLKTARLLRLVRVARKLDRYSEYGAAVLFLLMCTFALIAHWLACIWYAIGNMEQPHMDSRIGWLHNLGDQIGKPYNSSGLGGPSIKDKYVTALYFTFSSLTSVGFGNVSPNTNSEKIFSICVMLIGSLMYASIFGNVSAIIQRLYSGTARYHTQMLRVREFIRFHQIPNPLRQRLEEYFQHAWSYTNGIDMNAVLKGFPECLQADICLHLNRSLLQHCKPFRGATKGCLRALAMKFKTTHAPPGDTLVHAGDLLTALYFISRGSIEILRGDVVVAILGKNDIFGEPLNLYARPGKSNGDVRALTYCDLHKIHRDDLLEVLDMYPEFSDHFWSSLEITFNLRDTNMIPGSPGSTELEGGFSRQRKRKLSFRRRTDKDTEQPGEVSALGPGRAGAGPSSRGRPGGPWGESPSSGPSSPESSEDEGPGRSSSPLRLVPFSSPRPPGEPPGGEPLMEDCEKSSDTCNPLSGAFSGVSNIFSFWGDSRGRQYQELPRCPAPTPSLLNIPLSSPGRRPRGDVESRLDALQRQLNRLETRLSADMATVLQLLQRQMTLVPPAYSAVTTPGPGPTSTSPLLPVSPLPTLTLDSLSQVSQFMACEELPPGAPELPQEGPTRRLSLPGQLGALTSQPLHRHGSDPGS

SMILES	hERG current change (%, negative = inhibition) at 1uM [%]
N#Cc1ccc(N/N=C/c2cn(-c3ccccc3)nc2-c2ccccc2)c([N+](=O)[O-])c1	4.22
Cc1nn(-c2ccccc2)c(C)c1/C=N\NS(=O)(=O)c1ccc(Cl)cc1	-2.47
O=C(CCNS(=O)(=O)c1ccc(Br)cc1)NCCCSc1ccccc1	12.1
O=C(N/N=C/c1ccccc1O)C(=O)N1CCCCCC1	6.84
COc1cccc(CNCCO)c1OCc1ccc(Cl)cc1.Cl	13.8
Cc1cc2oc(=O)cc(CN3CCCCC3C)c2c(C)c1Cl (centres unmarked)	7.23
CSc1ccc(C(=O)C2CCCN(CCCn3cccn3)C2)cc1 (centres unmarked)	-78.3
Cn1c(O)c(C(=O)c2ccccc2Cl)c(=O)n(C)c1=O	2.11
Cc1cc(C)n(CCC(=O)N2CCc3ccccc32)n1	5.51
Nc1ncc(Br)cc1S(=O)(=O)NCCC(=O)N1CCN(c2ccccn2)CC1	-14.1
CC(=O)N/C(=C\c1ccc2c(c1)OCO2)C(=O)NC(C(=O)O)c1ccccc1 (centres unmarked)	17.4
Cc1onc(-c2ccccc2)c1NC(=O)Nc1c(-c2ccccc2)noc1C	5.94
CC(=O)c1cccc(NC(=S)NC2CCCCCCC2)c1	11.7
O=C(c1ccccc1)C1CCc2occc2C1=O (centres unmarked)	-2.9
Nc1nc(SCC(=O)Nc2ccccc2C(F)(F)F)[nH]c(=O)c1-c1ccccc1	9.85
O=C(Nc1cccc(C(=O)O)c1)/C(=C/c1ccc2c(c1)OCO2)NC(=O)c1cccc(Br)c1	9.96
Cc1nc(N2CCN(c3ccccc3)CC2)[nH]c(=O)c1C	3.65
Cn1cccc1Cc1nnc(SCC(=O)N2CCOCC2)n1-c1ccc(F)cc1	11.1
CN(NC(=O)COc1ccccc1)C1=NS(=O)(=O)c2ccccc21	16.1
CCOC(=O)[C@@H]1[C@H]2COc3ccc(Br)cc3[C@H]2N2C(=O)N(c3ccc(F)cc3)C(=O)[C@@]12C	7.35
COc1ccc(C(C(=O)NC(C)(C)C)N(C(=O)CCC(=O)Nc2cc(C)on2)c2cccc(C)c2C)cc1 (centres unmarked)	11.8
Cn1c(OCc2ccco2)nc2c1c(=O)n(Cc1ccc(Cl)c(Cl)c1)c(=O)n2C	6.62
c1ccc2c(c1)cnc1ccccc12	11.6

SMILES	hERG current change (%, negative = inhibition) at 1uM [%]
CCN(C(=O)c1cc2ccccc2oc1=O)c1ccccc1	7.88
O=C(Nc1ccccc1)OCCCc1ccccc1	8.84
CCOC(=O)c1c(-c2ccccc2)nc2ccc(C)cn12	-3.58
Cc1ccc(S(=O)(=O)Nc2ccc(C(=O)Nc3cc(C)on3)cc2)cc1	10.4
C/C(=N\n1nnnc1Nc1ccccc1)c1ccc(N)cc1	12.2
Cc1nc2sccn2c(=O)c1Cl	10.9
CCc1nc(-c2ccc(C)nc2OC)no1	16.5
Nn1cc(-c2ccccc2)nc1SCC(=O)NCC1CCCO1 (centres unmarked)	9.87
C[n+]1ccccc1/C=N/O.[I-]	15
N#Cc1ccc(CSc2ccccn2)c(Cl)c1	12.6
CCCCCC1(C)NC(=S)N(c2ccccc2)N1 (centres unmarked)	7.72
O=C(c1ccc(Cl)c([N+](=O)[O-])c1)N(Cc1cccc(Cl)c1)C1CCS(=O)(=O)C1 (centres unmarked)	8.54
O=C(NCCCN1CCCC1=O)c1cccc(N2CCCC2=O)c1	10.9
c1coc(-c2nc3nc4ccccc4n3nc2-c2ccco2)c1	15
O=S(=O)(NCCc1ccccc1)c1ccc(Cl)nc1	8.32
Cc1cccc(N(Cc2ccccc2)C(=O)c2ccccc2S(C)(=O)=O)c1	16.5
CCCCn1c(N)c(NCc2ccccc2OC)c(=O)[nH]c1=O	11.9
COc1ccc(CC(=O)N2CCN=C2SC)cc1	14.4
Br.Cn1c(=N)n(CC(=O)c2ccccc2)c2ccccc21	4.58
Cc1ccc(S(=O)(=O)NCCC(=O)Nc2cc(F)ccc2C)cc1C	11.6
Fc1ccccc1CNC(=S)NCc1ccc(Cl)cc1	8.07
Cc1cc(C)[n+]2n1C(=O)C(c1ccccc1)=C2[O-]	14.9
Cc1ccn(CCC(=O)N2CCc3ccccc32)n1	11.3

SMILES	hERG current change (%, negative = inhibition) at 1uM [%]
CC(C)(C)NC(=O)c1cccc(NC(=O)c2cccc(O)c2)c1	3.16
Cc1ccc(NC(=O)CS(=O)CC(=O)N2CCN(C3CCCC3)CC2)cc1 (centres unmarked)	19.6
CC1CCN(S(=O)(=O)c2cn(CC(=O)N3CC(C)CC(C)C3)c(=O)c3ccccc23)CC1 (centres unmarked)	10.7
Cn1nnc(NC(=S)NC(=O)c2cccc3ccccc23)n1	19.9
Cc1ccc(SCC(=O)N/N=C/c2ccco2)cc1	8.4
COc1ccc(-c2cc(-c3ccccc3O)[nH]n2)cc1	13.9
COc1ccc(/C=C/C(=O)O)cc1S(=O)(=O)N1CCc2ccccc2C1	12.6
Cc1ccc(NC(=O)c2ccc3c(c2)nnn3C)cc1	10.5
O=[N+]([O-])c1ccccc1SN(Cc1ccccc1)c1ccccn1	14.9
O=C(CNc1ccc(Br)cc1)Nc1ccc(S(=O)(=O)N2CCCC2)cc1	-5.67
COc1ccc(S(=O)(=O)NCc2ccncc2)cc1NC(=O)c1ccccc1	-5.36
O=C(c1ccc2c(c1)OCO2)C1CCCN(Cc2c(F)ccc(F)c2F)C1 (centres unmarked)	11.5
C=CCOc1ccc(CN(C)CC(O)COc2ccc(CCC(C)=O)cc2)cc1 (centres unmarked)	-6.81
COc1ccccc1NS(=O)(=O)c1cc(C(=O)NCC(c2ccco2)N2CCCCC2)ccc1C (centres unmarked)	-7.95
COc1cc2[nH]c(-c3ccc(C)cc3)cc(=O)c2cc1OC	9.12
O=c1c2ccccc2c(-c2ccc(O)cc2)nn1-c1cccc(C(F)(F)F)c1	13.9
CC1(C)CC(NC(=O)c2cc(S(=O)(=O)N3CCCCC3)ccc2Cl)CC(C)(C)N1	-3.75
CCOC(=O)C[N+](CC)(CC)CC#Cc1ccccc1	12.1
CCOC(=O)CC(=O)CSc1[nH]c(=O)cc(C)c1C#N	7.73
CCN(CC(=O)Nc1c(F)cccc1F)C(=O)CNC(=O)c1ccco1	4.72
Cc1c(CC(=O)N[C@@H](CCCNC(N)=O)C(=O)O)c(=O)oc2cc3oc4c(c3cc12)CCCC4	16
CCNc1cc2oc(=O)c(CN3CCOCC3)c(C)c2cc1C	0.327
CC1CC(C)CN(C(=O)C2CCN(S(=O)(=O)c3ccc4c(c3)CC(C)N4C(=O)C3CC3)CC2)C1 (centres unmarked)	10.2

SMILES	hERG current change (%, negative = inhibition) at 1uM [%]
COc1cc(NC(=O)c2cccc(Br)c2)nc(OC)n1	12.6
Cc1c(C)c2ccc(OCC(=O)Nc3ccccc3C(N)=O)cc2oc1=O	4.86
CCOc1cccc(C=NCCc2ccc(OC)c(OC)c2)c1O	15.9
CCOc1cccc2cc(C(=O)NCc3ccccc3)c(=N)oc12	10.9
O=C(c1ccccc1)n1nnc2ccccc21	3.72
COc1ccc(CCN2C(=O)c3ccccc3NC2c2cc(Cl)c(O)c(OC)c2)cc1 (centres unmarked)	11.7
Cc1ccc(-c2nnc(Nc3ccc(CC(N)=O)cc3)c3ccccc23)cc1S(=O)(=O)NCCO	8.63
Cc1cc(C)nc(N2CCC(C(=O)NC3CCCc4ccccc43)CC2)n1 (centres unmarked)	7.93
COc1ccc(N2C(=O)/C(=C/c3cccs3)NC2=S)cc1	11.7
Cc1ccccc1CNC(=O)C(=O)Nc1nccs1	17.9
COC(=O)Nc1nc2ccc(C(=O)c3cccs3)cc2[nH]1	0.619
Cc1cccc(Nc2nnc(SCC(=O)NC(=O)CN3CCCC3=O)s2)c1	13.7
COc1ccc(Cl)cc1NC(=O)c1[nH]c(C)c(C(C)=O)c1C	7.01
S=c1[nH]nc(-c2ccncc2)n1/N=C/c1ccccc1Cl	17.2
CCOC(=O)c1c(C)n(C)c2ccc(OC)c(NS(=O)(=O)c3ccc(Cl)s3)c12	5.59
CC1=C(C(=O)Nc2ccccc2C)C2(CCCC2)C(C(N)=O)C(=O)N1 (centres unmarked)	8.59
Nc1nnc(/C=C/c2ccccc2)s1	21.5
COc1ccc(Cl)cc1-c1nc(SCC(=O)NC(C)(C)C)n[nH]1	6.75
CCc1cc(=O)n2c([nH]c3ccccc32)c1C#N	16
CCOC(=O)N1CCN(C(=O)CCSc2ccc(C)cc2)CC1	0.89
CCCCOP(=O)(OCCCC)C(O)c1ccc(Br)cc1 (centres unmarked)	8.37
COCCn1c(=N)c(C(=O)NCCc2ccccc2)cc2c(=O)n3cccc(C)c3nc21	-86.1
CC(=O)c1c(C)[nH]c(C(=O)N2CC(C)CC(C)C2)c1C (centres unmarked)	12.2
